# From the supplement of paper PMC3334620
# In all, about 33,000 sequences were measured (“E-score (-0.5 to 0.5)”: median about -0.013, highest 2% from about 0.3 on). This is one part of the list.
# Target: T1, Msn1 (UniProt P22148)
# T1 sequence: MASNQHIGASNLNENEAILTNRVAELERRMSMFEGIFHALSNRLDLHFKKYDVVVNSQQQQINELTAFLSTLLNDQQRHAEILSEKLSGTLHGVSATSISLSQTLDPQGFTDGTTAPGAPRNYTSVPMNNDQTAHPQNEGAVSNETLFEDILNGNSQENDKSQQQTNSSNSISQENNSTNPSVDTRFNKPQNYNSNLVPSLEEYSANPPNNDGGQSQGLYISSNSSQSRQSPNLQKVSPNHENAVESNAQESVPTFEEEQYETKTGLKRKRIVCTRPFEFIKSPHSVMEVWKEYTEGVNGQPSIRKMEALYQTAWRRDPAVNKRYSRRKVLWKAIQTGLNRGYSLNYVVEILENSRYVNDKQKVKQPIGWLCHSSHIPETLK
# Test: PBM E-score (8-mer binding enrichment) (E-score (-0.5 to 0.5)); higher = stronger / more preferred TF binding; most listed sequences are background and not binding sites
# Settings: protein concentration: 200 nM; construct: GST-full length
# Procedure, shortened: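 Universal all-10-mer Agilent arrays, fresh or stripped once, were converted to double-stranded form by primer extension. GST-tagged yeast transcription factors from PURExpress in vitro transcription/translation, full-length or DNA-binding domain only, were applied at about 100-200 nM and detected with fluorescent anti-GST. After masliner normalisation, the Universal PBM Analysis Suite scored each ungapped eight-base word together with its reverse complement by E-score.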
row,Sequence,PBM E-score
1,ATGCGAAG,-0.0114
2,AAAGGTAC,0.0934
3,AATCGATG,0.144
4,CATGTCAC,0.291
5,ATACTGAG,0.0535
6,TCCCCCGA,-0.18
7,ATGAGCAA,0.0578
8,AAGACGAT,0.0374
9,GCGTACTA,0.0747
10,AGCGCGCC,-0.1
11,GACACCCC,-0.138
12,AGGACAGC,0.078
13,CACTAACC,-0.077
14,ACAAGTGA,0.195
15,CGAAGTGA,-0.0371
16,ACGTTCGG,-0.0537
17,GCACGAGC,-0.242
18,GCATAGAC,0.114
19,AGAAACAT,0.157
20,AGGGACCA,-0.188
21,AGTCTACC,-0.177
22,ACTGTTAG,-0.076
23,GCTCCGCC,-0.197
24,AGAAACTC,0.0918
25,CCGGTCAC,-0.068

row,Sequence,PBM E-score
1,CTCAACTC,0.0683
2,ATACAGGA,0.19
3,GCTACTCA,-0.15
4,AACGATCT,-0.0388
5,ACCATCGG,-0.0852
6,AGCGCACT,-0.118
7,ACCGCGTA,-0.0135
8,CCAACGGA,-0.08
9,ACAACCCC,-0.0844
10,GATGGTAC,0.111
11,ATCAGATC,-0.121
12,CAATTGTA,0.184
13,AACGAGTA,0.0188
14,CGTGGATA,0.068
15,AGCACACT,-0.0827
16,ATCCAGTC,0.0952
17,AAGCGGTC,-0.00589
18,ACGTTCAG,-0.0415
19,GCGGTACA,0.0441
20,AGACTACC,0.0803
21,ATCAAACC,0.0967
22,GCATAGCC,-0.214
23,CTTCGCTC,-0.125
24,GGTTAATA,0.143
25,CAGCTGGG,-0.182

row,Sequence,PBM E-score
1,CTGCCGTC,-0.268
2,GAAATCCA,-0.0457
3,AAGTGATT,0.156
4,ATTCCTCC,-0.124
5,CTAACGAA,0.0284
6,CTGTTCGA,-0.107
7,GGGTGAAC,-0.0473
8,ATAGACCG,-0.0549
9,GACTTTTA,0.29
10,CTGTTGCC,0.0672
11,GTGTTTAA,0.133
12,ACGATTAG,0.0217
13,GCAAAAGA,0.034
14,ATAGCCCG,-0.17
15,ATACGCGG,0.0145
16,AGGGACTG,-0.191
17,CCCCTCCA,-0.222
18,ACGATGGG,-0.133
19,CTATAACA,0.0404
20,AGATTCCC,-0.107
21,AACTGCTC,-0.0985
22,CCTGGGGC,-0.376
23,ACATGAAT,0.0842
24,CGCTCTCC,-0.23
25,CATCTGCC,-0.0408

row,Sequence,PBM E-score
1,CATTTCAC,0.148
2,TAATCAGA,-0.0476
3,GCCCTCAC,-0.32
4,CTCCGCAC,-0.0661
5,CCATTATC,0.0533
6,CCAGTCCG,-0.0618
7,GTTGGCTA,-0.0624
8,ACGCGCCC,-0.102
9,AACAGATC,-0.0552
10,GGGTTACC,-0.117
11,CGTGCAAC,-0.075
12,GTCTTAGA,0.238
13,AATACAGG,0.0823
14,GCTGCTAA,-0.228
15,ATAGCCTA,-0.0229
16,ATAACGGA,0.188
17,AGGCTTAT,-0.0752
18,GGCCACCA,-0.0221
19,CGTCCATA,0.236
20,GCGGTATA,-0.253
21,CGGAATTA,0.135
22,AGAGCAAG,-0.0268
23,ACACGAGT,0.185
24,ACAATCGT,0.0286
25,GGTACTAA,0.0687

row,Sequence,PBM E-score
1,GTGGCTAA,0.0945
2,CCAAGCGG,-0.16
3,ACGATCCC,-0.232
4,CCAACAGG,-0.202
5,CTATATAC,0.258
6,CCCGTTCA,-0.136
7,ACCTGATA,0.105
8,TTGACAAA,0.266
9,AAAGGGGG,-0.283
10,CTGTGAAG,-0.0581
11,CCCTGTGA,-0.274
12,CGAACAGC,-0.157
13,CCTGTTAC,0.0468
14,CGATCTAC,-0.0258
15,GTTGCTAA,0.0707
16,AGGCATCC,-0.16
17,ATTTCCCA,0.187
18,ATAACACG,-0.0422
19,GGAAGTTA,-0.0774
20,AATCAAAC,0.255
21,GGTTCATA,-0.124
22,CCCCCCGG,-0.364
23,CTAGCCGC,-0.0208
24,CCACTTAC,-0.133
25,AGAGATCC,-0.0104

row,Sequence,PBM E-score
1,ACTACAAT,0.17
2,GGCGCGCC,0.172
3,ATTGCAAG,-0.0753
4,AAGGCTAT,-0.137
5,CCCGAAAG,0.0562
6,CATGTGGC,-0.0208
7,AGGCAGAA,-0.123
8,AGATCACA,-0.102
9,AAGAACGG,-0.0325
10,AGAAGGCC,-0.158
11,AAGTCATC,0.00089
12,CGATTCTA,-0.0158
13,CTGCCAAA,0.0491
14,CTACCGCC,-0.0358
15,AAAAGTCC,0.467
16,AGTCCACT,-0.12
17,AAGAAGGT,-0.074
18,TGGAGGAA,-0.161
19,CGATAAGC,-0.0093
20,AGATAGGG,-0.0745
21,AGACCAAG,-0.121
22,ACCGGTAC,-0.0184
23,GAATGCAA,-0.193
24,ATGCGAAT,-0.0861
25,GAAAATGA,0.0447

row,Sequence,PBM E-score
1,AATAATGA,-0.0153
2,ACGGGCAC,-0.218
3,AACCTTAT,-0.128
4,CCAGTCAA,0.126
5,AACGGATA,0.18
6,ACTCCGGA,0.26
7,AATAGATC,0.0278
8,CGCGAGGC,0.0864
9,CCTTAGCC,-0.0421
10,TCTAAAGA,0.205
11,ATGATAGC,0.081
12,AAGAATTA,0.0763
13,GAAAGTCA,0.233
14,AAAGCCCA,-0.0978
15,ACCCGGAA,0.0689
16,CAAAATTC,0.196
17,TATTTAGA,0.175
18,GTCTAGAA,0.132
19,CTGAAGGC,-0.099
20,CATCCCCG,-0.0978
21,ATCTGGTC,0.107
22,GACAAACA,0.456
